According to a compilation of properties of binary mixtures (doi:10.1007/s10953-020-00967-3):
Some of these densities may be calculated back from excess volumes.

Assay: xn = mol fraction of the nth substance listed
Conditions: 101 kPa

Structure (SMILES): CCCC[n+]1ccn(C)c1.F[B-](F)(F)F + CN(C)C=O
- mass density (293.15 K, x1 = 0.0817): 996.5 kg/m3
- mass density (293.15 K, x1 = 0.1602): 1036.5 kg/m3
- mass density (293.15 K, x1 = 0.2406): 1067.2 kg/m3
- mass density (293.15 K, x1 = 0.3472): 1100.1 kg/m3
- mass density (293.15 K, x1 = 0.4392): 1122.3 kg/m3
- mass density (293.15 K, x1 = 0.5598): 1145.8 kg/m3
- mass density (293.15 K, x1 = 0.6532): 1160.9 kg/m3
- mass density (293.15 K, x1 = 0.7428): 1173.4 kg/m3
- mass density (293.15 K, x1 = 0.8382): 1185.3 kg/m3
- mass density (293.15 K, x1 = 0.9424): 1196.8 kg/m3
- mass density (293.15 K, x1 = 1): 1202.8 kg/m3
- mass density (298.15 K, x1 = 0.0817): 993.6 kg/m3
- mass density (298.15 K, x1 = 0.1602): 1033.1 kg/m3
- mass density (298.15 K, x1 = 0.2406): 1064.7 kg/m3
- mass density (298.15 K, x1 = 0.3472): 1097.2 kg/m3
- mass density (298.15 K, x1 = 0.4392): 1119.5 kg/m3
- mass density (298.15 K, x1 = 0.5598): 1142.8 kg/m3
- mass density (298.15 K, x1 = 0.6532): 1157.7 kg/m3
- mass density (298.15 K, x1 = 0.7428): 1170.2 kg/m3
- mass density (298.15 K, x1 = 0.8382): 1181.9 kg/m3
- mass density (298.15 K, x1 = 0.9424): 1193.2 kg/m3
- mass density (298.15 K, x1 = 1): 1199.2 kg/m3
- mass density (303.15 K, x1 = 0.0817): 989.5 kg/m3
- mass density (303.15 K, x1 = 0.2406): 1060.6 kg/m3
- mass density (303.15 K, x1 = 0.4392): 1115.6 kg/m3
- mass density (303.15 K, x1 = 0.6532): 1154 kg/m3
- mass density (303.15 K, x1 = 0.7428): 1166.5 kg/m3
- mass density (303.15 K, x1 = 0.8382): 1178.3 kg/m3
- mass density (303.15 K, x1 = 0.9424): 1189.6 kg/m3
- mass density (303.15 K, x1 = 1): 1195.6 kg/m3
- mass density (308.15 K, x1 = 0.0817): 985.3 kg/m3
- mass density (308.15 K, x1 = 0.1602): 1024.8 kg/m3
- mass density (308.15 K, x1 = 0.2406): 1056.4 kg/m3
- mass density (308.15 K, x1 = 0.5598): 1135.2 kg/m3
- mass density (308.15 K, x1 = 0.6532): 1150.3 kg/m3
- mass density (308.15 K, x1 = 0.7428): 1162.8 kg/m3
- mass density (308.15 K, x1 = 0.8382): 1174.7 kg/m3
- mass density (308.15 K, x1 = 0.9424): 1186.1 kg/m3
- mass density (308.15 K, x1 = 1): 1192 kg/m3
- mass density (313.15 K, x1 = 0.0817): 981.4 kg/m3
- mass density (313.15 K, x1 = 0.2406): 1052.3 kg/m3
- mass density (313.15 K, x1 = 0.3472): 1085.2 kg/m3
- mass density (313.15 K, x1 = 0.4392): 1107.8 kg/m3
- mass density (313.15 K, x1 = 0.5598): 1131.5 kg/m3
- mass density (313.15 K, x1 = 0.6532): 1146.7 kg/m3
- mass density (313.15 K, x1 = 0.7428): 1159.3 kg/m3
- mass density (313.15 K, x1 = 0.8382): 1171.2 kg/m3
- mass density (313.15 K, x1 = 0.9424): 1182.6 kg/m3
- mass density (313.15 K, x1 = 1): 1188.5 kg/m3
- mass density (318.15 K, x1 = 0.1602): 1016.5 kg/m3
- mass density (318.15 K, x1 = 0.2406): 1048.2 kg/m3
- mass density (318.15 K, x1 = 0.6532): 1143 kg/m3
- mass density (318.15 K, x1 = 0.7428): 1155.7 kg/m3
- mass density (318.15 K, x1 = 0.8382): 1167.6 kg/m3
- mass density (318.15 K, x1 = 0.9424): 1179.1 kg/m3
- mass density (318.15 K, x1 = 1): 1184.9 kg/m3
- mass density (323.15 K, x1 = 0.1602): 1012.5 kg/m3
- mass density (323.15 K, x1 = 0.2406): 1044.1 kg/m3
- mass density (323.15 K, x1 = 0.4392): 1100.1 kg/m3
- mass density (323.15 K, x1 = 0.5598): 1124.1 kg/m3
- mass density (323.15 K, x1 = 0.7428): 1152.3 kg/m3
- mass density (323.15 K, x1 = 0.8382): 1164.2 kg/m3
- mass density (323.15 K, x1 = 0.9424): 1175.6 kg/m3
- mass density (323.15 K, x1 = 1): 1181.4 kg/m3

Structure (SMILES): CN(C)C=O + CCCC[n+]1ccn(C)c1.F[B-](F)(F)F
- mass density (293.15 K, x2 = 0): 948.5 kg/m3
- mass density (298.15 K, x2 = 0): 943.7 kg/m3
- mass density (303.15 K, x2 = 0): 938.9 kg/m3
- mass density (308.15 K, x2 = 0): 934.1 kg/m3
- mass density (313.15 K, x2 = 0): 929.3 kg/m3
- mass density (318.15 K, x2 = 0): 924.5 kg/m3
- mass density (323.15 K, x2 = 0): 919.7 kg/m3
